172 sequences from article PMC5836133 can be followed below.

Some of the results follow. At the low end of the ranking the order means little.

The subject of this assay is T1, GST-NbGlk1(82-244).
T1 sequence: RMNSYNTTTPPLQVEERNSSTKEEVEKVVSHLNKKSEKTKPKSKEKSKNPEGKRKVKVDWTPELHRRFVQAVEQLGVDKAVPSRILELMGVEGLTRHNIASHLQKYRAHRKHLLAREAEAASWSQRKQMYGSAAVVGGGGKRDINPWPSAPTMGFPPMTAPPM
Description: protein-binding microarray.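 Note: rank-based score ranging −0.5 to +0.5 with E above 0.45 taken as significant binding.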 To be noted: NbGlk1 is a Golden2-like transcription factor of Nicotiana benthamiana; high values mean tight binding; most listed sequences are background and not binding sites; double strand, one strand shown.
Take ATTTGCTC: the binding signal came to 0.253 E-score. In the case of ATGGGGAC it was -0.138 E-score; in that of ACGTCGGC, -0.186 E-score. Regarding ACAGGAGG, the binding signal is -0.111 E-score.

The sequence ACGACTAC came in with a binding signal of -0.105 E-score.

AATAGAAA registered a binding signal of 0.132 E-score. The same measure for AGTCGAGC: -0.318 E-score; for AACACCGA: 0.0733 E-score.

AACACGAC registered a binding signal of -0.189 E-score.

CAGAAGTC showed a binding signal of -0.0489 E-score. In the case of AGCTGACG it was -0.171 E-score; in that of ATGGAAAG, -0.0678 E-score; in that of CACTCAGC, -0.154 E-score. In the case of AGTATTCG it was 0.0703 E-score. The same measure for AACGCAAA: 0.115 E-score; for ATCATGGC: 0.0394 E-score.

CAAGAGAC yielded a binding signal of -0.124 E-score.

AAAGCTAG displayed a binding signal of 0.0285 E-score. As for CACATAGA, the binding signal came to 0.107 E-score.

For AAGGCTGA, the binding signal was -0.197 E-score. The same measure for AGTGGTCC: -0.257 E-score. In the case of ACTAAAGT it was -0.0581 E-score. The same measure for AGTGTCTC: -0.00738 E-score. The sequence ACCGATCG yielded a binding signal of 0.0385 E-score. The same measure for AATTTGGA: 0.157 E-score; for ACGCGTTG: -0.124 E-score.

As for ACTGAGCT, the binding signal was -0.125 E-score. The sequence ACGCATTC yielded a binding signal of -0.102 E-score. In the case of ATTGGGGA it was 0.0378 E-score; in that of ACGAACGC, -0.121 E-score. In the case of AGTTTCAT it was 0.00185 E-score. For the sequence AAAGGCAA, the binding signal is -0.0276 E-score. In the case of ATGCCATC it was -0.0958 E-score; in that of AGATGTTC, 0.055 E-score; in that of ACCAGTAC, -0.189 E-score. In the case of ATCTGGTA it was 0.238 E-score; in that of CAAATGCA, -0.0146 E-score. Sequence AGGACGAT showed a binding signal of 0.176 E-score. The same measure for ATGCATCA: -0.00345 E-score; for AGAATACT: -0.0088 E-score. In the case of ACGGAAAC it was -0.201 E-score.

In turn, AGTGCAGA came in with a binding signal of 0.13 E-score.

In the case of AGTACGGC, the binding signal is -0.215 E-score.

With AAGGCGCA, the binding signal was -0.118 E-score. In the case of ACCTGTAA it was 0.0445 E-score.

Sequence ATTCGAAC registered a binding signal of 0.109 E-score. In the case of ATCATTCC it was -0.0969 E-score.

ACAGGAAC: the binding signal is -0.105 E-score. In the case of AACATAGA it was 0.0936 E-score; in that of AATCCGCT, 0.388 E-score. In the case of CAGCCCAA it was -0.113 E-score; in that of AACAAAGA, 0.0614 E-score; in that of AGTCTACC, -0.233 E-score. In the case of ACACTTCT it was -0.00471 E-score; in that of AAAAGTTT, -0.000852 E-score; in that of AGGCGTTC, -0.191 E-score. Consider AGAAGCCC, for which the binding signal was -0.355 E-score. The same measure for AATAATAG: 0.181 E-score. On to AGCGGATA, for which the binding signal came out at 0.27 E-score. As to ACGCGGTG, the binding signal was -0.213 E-score. In the case of CAAATAGC it was -0.0948 E-score; in that of ATAAATAT, 0.292 E-score; in that of AAGGCTCC, -0.343 E-score. In the case of AGGATTAC, the binding signal turned out to be 0.449 E-score. As to ATAAGAAC, the binding signal turned out to be 0.0653 E-score.

As to AAGCCCAA, the binding signal was -0.172 E-score. In the case of AGACATCA it was 0.0261 E-score; in that of ACTGTCCA, -0.129 E-score; in that of AGAACACT, -0.0433 E-score. Consider AATTTACA, for which the binding signal worked out at 0.134 E-score. In the case of ACGCTGGA, the binding signal was -0.112 E-score. In the case of CAAGCCCG it was -0.344 E-score; in that of ATTGTATC, 0.0886 E-score. In the case of AGTTTATC it was -0.137 E-score; in that of AAAGGATT, 0.372 E-score; in that of ATAGAACC, -0.0986 E-score. In the case of AACTGCGT it was -0.0817 E-score. Take AGTGTTTG: the binding signal amounted to 0.0123 E-score. In turn, AGAGACCT registered a binding signal of -0.205 E-score. Sequence ACTTCGTA came in with a binding signal of 0.0587 E-score. In the case of AGGGGTAC it was -0.27 E-score; in that of AATAATAA, 0.28 E-score.

Sequence ATACGGAA came in with a binding signal of 0.173 E-score. The same measure for ATAGCGAA: 0.167 E-score; for AGCGGGTA: -0.113 E-score; for AGTTTAAC: -0.0229 E-score.

Regarding CACTGCCC, the binding signal was -0.308 E-score. For the sequence ACTAAATC, the binding signal was found to be 0.213 E-score. Consider AGGTCGAG, for which the binding signal was -0.179 E-score. In the case of ATGATTCA it was 0.0749 E-score.

For AACAAAAC, the binding signal turned out to be 0.0449 E-score. The same measure for AAAGATAA: 0.122 E-score. With ATTTGACG, the binding signal was 0.169 E-score. In the case of ACTCGTAA it was 0.247 E-score. The same measure for AGGCTTAC: -0.337 E-score; for ATCTTCCC: 0.24 E-score. As for AAAATACC, the binding signal worked out at 0.137 E-score. In the case of ACTCGTAT it was 0.00375 E-score; in that of ATGTAGAA, 0.0373 E-score.

As for AACTGGTG, the binding signal was -0.172 E-score. AACTCGTC: the binding signal is -0.117 E-score. The same measure for AGGACTGA: -0.0878 E-score; for AATCTGGC: 0.416 E-score; for AGGAGCCA: -0.155 E-score. The same measure for CAACCTTA: -0.21 E-score. Consider ACAGCTAC, for which the binding signal was -0.179 E-score.

On to ATTGCCTA, for which the binding signal came to 0.133 E-score. The same measure for CAAAGGAA: -0.0301 E-score; for AGATTTTG: 0.465 E-score.

ATTTGCGC gave a binding signal of 0.248 E-score.

The sequence AGAAACGG showed a binding signal of -0.055 E-score.

Regarding CAATGGCC, the binding signal was -0.192 E-score. In the case of ACGACCTC it was -0.285 E-score; in that of ACTCATTC, -0.0306 E-score; in that of AACACCAT, -0.0456 E-score. The same measure for AGTTTTAG: -0.0519 E-score; for AATGGTTA: -0.0471 E-score. The same measure for ATTGCTAC: 0.23 E-score; for AGGGAGTG: -0.203 E-score. With CACGCAGA, the binding signal came to 0.0599 E-score.

In the case of AACAAGCC, the binding signal was -0.0982 E-score. The same measure for ACGCGATA: 0.252 E-score. The same measure for AGCAACAT: -0.132 E-score; for ATGATTGG: -0.0558 E-score; for AGTGTACG: -0.2 E-score.

ACCGCAGT showed a binding signal of -0.123 E-score. In the case of AATCAGAG it was 0.229 E-score; in that of AGATTGAG, 0.0933 E-score. Sequence ATTTGGTG showed a binding signal of 0.213 E-score. In the case of ACTGAAAG, the binding signal is -0.00188 E-score. Turning to AAGGTACT, the binding signal is -0.0699 E-score. AGGGTCGA displayed a binding signal of -0.198 E-score. AACATGGT: the binding signal is -0.137 E-score. The same measure for CAAGATAG: 0.0883 E-score; for ATTCTACC: 0.168 E-score; for ACGGAGCA: -0.133 E-score. The same measure for AGGACCGG: -0.258 E-score; for ATTGGGAA: 0.0688 E-score. For ATACTCAT, the binding signal turned out to be 0.264 E-score. In the case of AGCCCACG it was -0.213 E-score.

For the sequence AATGATCA, the binding signal was 0.0783 E-score. For AATTGTAA, the binding signal turned out to be 0.189 E-score. The sequence ACCACAAC had a binding signal of -0.0247 E-score. The same measure for ACTACAGT: -0.148 E-score; for AGTACCAT: -0.097 E-score; for ATCTTATG: 0.195 E-score. In the case of CAAAACCC it was -0.0619 E-score; in that of ATAGAGTC, -0.153 E-score. In the case of ATCGCACG it was 0.179 E-score; in that of AGACGGCG, -0.299 E-score; in that of CACTATGC, 0.0838 E-score. For the sequence AAAGGGTT, the binding signal is -0.177 E-score. As for AAACCGAG, the binding signal is -0.171 E-score. The same measure for ATACCTGA: 0.0214 E-score.

For AGTGAACT, the binding signal is -0.202 E-score. The sequence CACCTGCG had a binding signal of -0.101 E-score. As for ACGCTAAG, the binding signal is -0.0978 E-score. In the case of AAGCTTGA it was -0.123 E-score; in that of AGAACCGC, -0.137 E-score; in that of CAACCACG, -0.0691 E-score.

The sequence ACCAACGC yielded a binding signal of -0.17 E-score. In the case of CACGTACC it was -0.252 E-score.

Turning to CAGCACCC, the binding signal is -0.198 E-score.

In turn, AGGCTGCC yielded a binding signal of -0.293 E-score. The same measure for AATTCTAC: 0.133 E-score. The same measure for ATTCGCCA: 0.278 E-score; for CACCATCA: -0.0947 E-score. In the case of CACACACC it was -0.167 E-score; in that of AGATATAA, 0.208 E-score. In the case of ATCATATC, the binding signal turned out to be 0.329 E-score.

As to ACCCCGGG, the binding signal was -0.207 E-score. The same measure for AATACCCA: 0.148 E-score.
